Data reported in patent publication US20230257470A1 (published 2023).

Target: T1, human FcγRIIa(R) (allotype R131) (human, UniProt P12318 36-217)
T1 construct: Soluble analyte in SPR; also called hFcgRIIa(R); FcgRIIaR
T1 chain: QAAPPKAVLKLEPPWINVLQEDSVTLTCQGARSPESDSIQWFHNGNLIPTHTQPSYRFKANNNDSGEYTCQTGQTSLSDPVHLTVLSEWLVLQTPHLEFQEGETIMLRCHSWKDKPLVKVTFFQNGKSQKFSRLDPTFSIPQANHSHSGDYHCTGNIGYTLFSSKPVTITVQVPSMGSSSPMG
Test: SPR (Biacore T100), antibody captured by Protein L, FcγR as analyte, pH 7.4, 25 C

B1: antibody containing VH3-IgG1-F648 for the heavy chain and L(WT)-CK for the light chain (antibody)
heavy: QVQLQESGPGLVKPSETLSLTCAVSGHSISHDHAWSWVRQPPGEGLEWIGFISYSGITNYNPSLQGRVTISRDNSKNTLYLQMNSLRAEDTAVYYCARSLARTTAMDYWGEGTLVTVSS[no letters for human IgG1 constant region with P238D (EU numbers)]
light: DIQMTQSPSSLSASVGDRVTITCRASQDISSYLNWYQQKPGKAPKLLIYYTSRLHSGVPSRFSGSGSGTDFTFTISSLQPEDIATYYCQQGNTLPYTFGQGTKVEIKRTVAAPSVFIFPPSDEQLKSGTASVVCLLNNFYPREAKVQWKVDNALQSGNSQESVTEQDSKDSTYSLSSTLTLSKADYEKHKVYACEVTHQGLSSPVTKSFNRGEC
notes: VH3-IgG1 with P238D (EU numbering)
BINDING AMOUNT (RU): 12.2 RU
